{"source": "the supplement of paper PMC3334620", "note": "The full ranking holds about 33,000 sequences; the median of “E-score (-0.5 to 0.5)” is about -0.035, and the highest 2% start at about 0.35. The list shows a part of the results.", "data": [{"biological_target": "T1, Pdr3 (UniProt P33200)", "T1 sequence": "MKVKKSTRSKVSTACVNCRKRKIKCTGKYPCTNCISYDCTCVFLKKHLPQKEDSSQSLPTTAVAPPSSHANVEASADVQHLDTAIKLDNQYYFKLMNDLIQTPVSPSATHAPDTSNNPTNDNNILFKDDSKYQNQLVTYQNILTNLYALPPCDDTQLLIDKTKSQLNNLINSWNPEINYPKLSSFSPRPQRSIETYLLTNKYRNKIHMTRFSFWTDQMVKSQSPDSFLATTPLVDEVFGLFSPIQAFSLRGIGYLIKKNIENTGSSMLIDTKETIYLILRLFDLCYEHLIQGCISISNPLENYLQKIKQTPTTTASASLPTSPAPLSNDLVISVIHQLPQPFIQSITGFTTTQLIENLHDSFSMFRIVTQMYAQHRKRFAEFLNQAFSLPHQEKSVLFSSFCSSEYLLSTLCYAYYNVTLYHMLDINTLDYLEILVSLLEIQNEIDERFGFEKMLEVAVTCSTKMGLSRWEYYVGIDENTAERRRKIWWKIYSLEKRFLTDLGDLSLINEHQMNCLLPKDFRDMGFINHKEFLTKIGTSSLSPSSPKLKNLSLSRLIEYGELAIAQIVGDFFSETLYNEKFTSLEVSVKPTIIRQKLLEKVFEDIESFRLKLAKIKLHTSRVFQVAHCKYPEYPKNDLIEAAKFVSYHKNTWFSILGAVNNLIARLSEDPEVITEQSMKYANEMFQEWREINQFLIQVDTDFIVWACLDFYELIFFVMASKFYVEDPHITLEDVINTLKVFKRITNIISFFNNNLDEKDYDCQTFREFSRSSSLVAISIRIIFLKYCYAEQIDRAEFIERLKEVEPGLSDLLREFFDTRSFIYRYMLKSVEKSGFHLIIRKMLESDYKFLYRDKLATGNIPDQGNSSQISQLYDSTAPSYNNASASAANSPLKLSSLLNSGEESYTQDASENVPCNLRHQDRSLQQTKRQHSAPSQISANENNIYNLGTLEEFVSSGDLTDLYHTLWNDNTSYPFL", "experiment": "PBM E-score (8-mer binding enrichment) (E-score (-0.5 to 0.5)); higher = stronger / more preferred TF binding; most listed sequences are background and not binding sites", "conditions": "protein concentration: 200 nM; construct: GST-full length", "procedure,_shortened": "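PURExpress in vitro transcription/translation supplied GST-tagged yeast transcription factors, either full-length or DNA-binding domain. Applied at about 100-200 nM to universal all-10-mer Agilent arrays double-stranded by primer extension, the bound protein was detected with fluorescent anti-GST. E-scores, modified Wilcoxon-Mann-Whitney statistics, were given by the Universal PBM Analysis Suite to ungapped eight-base words pooled with their reverse complements after masliner normalisation.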", "values": [{"sequence": "ATTCTCTG", "PBM E-score": -0.184}, {"sequence": "GAGCTATA", "PBM E-score": -0.303}, {"sequence": "AGTTATCA", "PBM E-score": -0.275}, {"sequence": "CGCCTCCG", "PBM E-score": 0.295}, {"sequence": "ACAAACTG", "PBM E-score": -0.248}, {"sequence": "AGGCGAGG", "PBM E-score": -0.0755}, {"sequence": "CGGGAAGA", "PBM E-score": 0.391}, {"sequence": "ATGTTATC", "PBM E-score": 0.0774}, {"sequence": "AGTGCTGG", "PBM E-score": -0.103}, {"sequence": "GCCAGACA", "PBM E-score": 0.0107}, {"sequence": "GGTGTCAC", "PBM E-score": 0.073}, {"sequence": "CTACTGAC", "PBM E-score": -0.107}, {"sequence": "ATACCGGG", "PBM E-score": 0.183}, {"sequence": "CGCTATTA", "PBM E-score": 0.0145}, {"sequence": "AGGTATCG", "PBM E-score": 0.117}, {"sequence": "CTGGGGTC", "PBM E-score": -0.0264}, {"sequence": "CAAAGGAA", "PBM E-score": 0.0289}, {"sequence": "CATTTGGG", "PBM E-score": -0.0523}, {"sequence": "AAGTCTAT", "PBM E-score": -0.272}, {"sequence": "CTTAGGCA", "PBM E-score": -0.275}, {"sequence": "ACCGTCAC", "PBM E-score": -0.113}, {"sequence": "AAGAGGTA", "PBM E-score": 0.0631}, {"sequence": "GACATCTC", "PBM E-score": 0.123}, {"sequence": "CGTTGTAG", "PBM E-score": 0.193}, {"sequence": "AACGCTTA", "PBM E-score": -0.192}, {"sequence": "TATGCGAA", "PBM E-score": 0.013}, {"sequence": "AGACTAAT", "PBM E-score": -0.0279}, {"sequence": "ACCAGATA", "PBM E-score": 0.0315}, {"sequence": "CCCCACTC", "PBM E-score": -0.0483}, {"sequence": "AGCTGGCG", "PBM E-score": -0.0937}, {"sequence": "ACCTGCTC", "PBM E-score": -0.0276}, {"sequence": "CATGTAAC", "PBM E-score": -0.0635}, {"sequence": "TAGAGTGA", "PBM E-score": -0.134}, {"sequence": "CGCACGTC", "PBM E-score": 0.0583}, {"sequence": "GAGCCGTA", "PBM E-score": 0.223}, {"sequence": "GCAATTCA", "PBM E-score": 0.125}, {"sequence": "CACCAATA", "PBM E-score": -0.0503}, {"sequence": "CGAAGCCA", "PBM E-score": -0.211}, {"sequence": "AGGTACAA", "PBM E-score": -0.2}, {"sequence": "ATTCCGAC", "PBM E-score": 0.413}, {"sequence": "AACCACAA", "PBM E-score": 0.126}, {"sequence": "GCGCCTTA", "PBM E-score": -0.00836}, {"sequence": "GTAACTAC", "PBM E-score": -0.0267}, {"sequence": "AAATCTCT", "PBM E-score": -0.0331}, {"sequence": "CGGAGGCA", "PBM E-score": 0.103}, {"sequence": "CGACAGAC", "PBM E-score": -0.0397}, {"sequence": "ACGTTCCA", "PBM E-score": 0.0623}, {"sequence": "ACGCAATC", "PBM E-score": 0.0295}, {"sequence": "CCTGGACG", "PBM E-score": 0.0302}, {"sequence": "AACTAGGT", "PBM E-score": 0.131}, {"sequence": "AGCAATTA", "PBM E-score": 0.0128}, {"sequence": "AACTGAGG", "PBM E-score": -0.0968}, {"sequence": "GGTGAACA", "PBM E-score": -0.126}, {"sequence": "AATGACTG", "PBM E-score": -0.188}, {"sequence": "CCACCCTC", "PBM E-score": 0.0627}, {"sequence": "CCCAGGAA", "PBM E-score": -0.175}, {"sequence": "ATGCCGAA", "PBM E-score": 0.261}, {"sequence": "GAAGACGA", "PBM E-score": -0.0212}, {"sequence": "ACGTTGCA", "PBM E-score": -0.0806}, {"sequence": "ATTCGAAT", "PBM E-score": -0.169}, {"sequence": "CTTGGCTA", "PBM E-score": -0.151}, {"sequence": "AACCTGTA", "PBM E-score": -0.187}, {"sequence": "GACCCCGC", "PBM E-score": 0.189}, {"sequence": "ACTATTTG", "PBM E-score": -0.0398}, {"sequence": "AGTGGACG", "PBM E-score": 0.0406}, {"sequence": "CTCATGAC", "PBM E-score": 0.0737}, {"sequence": "AGACGGCG", "PBM E-score": 0.166}, {"sequence": "CCAAGCAG", "PBM E-score": -0.0496}, {"sequence": "AGGCGTGG", "PBM E-score": -0.371}, {"sequence": "AACCAGTC", "PBM E-score": -0.11}, {"sequence": "AATCTGTG", "PBM E-score": 0.0867}, {"sequence": "AACTAGCG", "PBM E-score": 0.0803}, {"sequence": "ACACGTCA", "PBM E-score": -0.0841}, {"sequence": "ATTCCTCA", "PBM E-score": -0.0935}, {"sequence": "CCGAAACA", "PBM E-score": 0.168}, {"sequence": "CTTGACTA", "PBM E-score": -0.119}, {"sequence": "AGCTGGAA", "PBM E-score": -0.127}, {"sequence": "AGTCTTTA", "PBM E-score": -0.398}, {"sequence": "AGTATCAT", "PBM E-score": 0.165}, {"sequence": "CTCGCGAC", "PBM E-score": 0.0674}, {"sequence": "CCAAGACA", "PBM E-score": 0.0447}, {"sequence": "TACGGGCA", "PBM E-score": 0.00013}, {"sequence": "ATAGATAG", "PBM E-score": -0.216}, {"sequence": "ACGCACAT", "PBM E-score": -0.092}, {"sequence": "GGATCGTA", "PBM E-score": 0.138}, {"sequence": "GTCGGCTA", "PBM E-score": 0.0468}]}]}
